Where two headings read alike, the source gives them in different places.
System: HLA II on tumor associated monocyte like-cells
Conditions: average of 10 replicates

Molecule	expression of HLA II by flow cytometry, Average (24 Hours)	expression of HLA II by flow cytometry, Average (48 Hours)	expression of HLA II by flow cytometry, Average (96 Hours)
CCCC(CCC)C(=O)O [Valproic Acid]	626.0	786.0	3853.6
Interferon Gamma: Interferon Gamma, used at 10 ng/ml on the cells (protein, UniProt P01579 24-161, looked up) Interferon gamma: QDPYVKEAENLKKYFNAGHSDVADNGTLFLGILKNWKEESDRKIMQSQIVSFYFKLFKNFKDDQSIQKSVETIKEDMNVKFFNSNKKKRDDFEKLTNYSVTDLNVQRKAIHELIQVMAELSPAAKTGKRKRSQMLFRG	918.1	–	–
